The results in this text go back to ChEMBL document CHEMBL4888484, “Replenishing the malaria drug discovery pipeline: Screening and hit evaluation of the MMV Hit Generation Library 1 (HGL1) against asexual blood stage Plasmodium falciparum ,using a nano luciferase reporter read-out” (2022).

Each structure is given as a SMILES string. Out of some 150,000 compounds screened, about 540 (0.36%) showed an effect of 50% or more. The list shows a part of the results.

For this assay, the system named is Plasmodium falciparum. The experiment in a line: Primary screen in NF54 nanoGlo assay, in single point, at 2uM, 72h; a lower Z score goes with more inhibition. Type of assay: functional, Erythrocyte. Particulars: timepoint 72 hour.
As to `COC(C(=O)NC1CCCN(CC(F)(F)F)C1)c1cnn(C)c1` (stereo unspecified), the % Inhibition – broadly, the relative decrease from the control value, in per cent – is given as -6% and the Z score came to 1.14.
Taken in the same sequence, the figures for `CCn1ncc(CN2CC[C@H](CNC(=O)N3CCCC3)[C@@H](O)C2)c1C` were 0% and 0.06.
Taken in the same sequence, the figures for `CN(C(=O)CN1CC[C@@]2(CCCN(Cc3ccccc3)C2)C1)C1CC1` were -10% and 1.66.
As to `c1ccc(-c2noc(-c3cc(C4CC4)nc4ccccc34)n2)nc1`, the “% Inhibition” value is -2% and the Z score worked out at 0.19.
As for `COCCc1nnc2n1CCC1(CC2)CCN(C(=O)CCS(=O)(=O)c2ccccc2)CC1`, the “% Inhibition” value is recorded as -11% and the Z score was 1.04.
Regarding `CCOc1ccncc1S(=O)(=O)N1CCOc2ncc(C)cc21`, the “% Inhibition” value is recorded as 8% and the Z score was -1.35.
For `CC(=O)Nc1ccccc1-c1noc(-c2cc(C)oc2C)n1` the same measures were -13% and 2.
Consider `CC(C)CNC(=O)c1cc2cc(NC(=O)c3ccccc3Cl)ccc2n1Cc1ccc(C(C)(C)C)cc1`, for which the “% Inhibition” value is given as -6% and the Z score is reported as 0.67.
For `O=C1COc2c(F)cc(NC(=O)N[C@H]3COC[C@@H]3N3CCCCC3)cc2N1` the same measures were 13% and -1.72.
Taken in the same sequence, the figures for `Cc1ccc(-n2ccnc2)c(C(=O)NC[C@H](O)c2ccco2)c1` were -5% and 0.97.
For `Cc1nc(NC(=O)CCc2ccncc2)n(C)n1` the same measures were -9% and 1.31.
For `CC(C)(C)OC(=O)N[C@@H](COCc1ccccc1)C(=O)O`, the “% Inhibition” value is recorded as -15% and the Z score stood at 2.93.
Consider `Cc1nc(C(C)C)ncc1C(=O)N(C)Cc1snnc1C`, for which the “% Inhibition” value is on record as -12% and the Z score is reported as 1.15.
On to `CC(C)c1nsc(N2CCS(=O)(=O)C(C)(C)C2)n1`, for which the “% Inhibition” value is listed as -15% and the Z score was 1.72.
Taken in the same sequence, the figures for `CCN1CCCN(C(=O)CC2CCCC2)CC12CCOCC2` were -5% and 0.62.
Take `O=C(NCC(CO)CC1CCCCC1)[C@@H]1CCCO1` (stereo partly specified): the “% Inhibition” value is recorded as -7% and the Z score is given as 0.8.
Consider `COc1ccc(/C=C/CN2CCC(CCC(=O)NCc3ccc(F)cc3)CC2)cc1`, for which the “% Inhibition” value is recorded as -20% and the Z score is given as 1.84.
With `Cn1cnc2cc(OC(=O)c3cccc4ccccc34)ccc21`, the “% Inhibition” value is recorded as -17% and the Z score came to 3.25.
For the compound `CC(C)N(CC(=O)N1c2ccccc2-n2cccc2[C@H]1c1cccc(Cl)c1)C(=O)C(c1ccccc1)c1ccccc1`, the “% Inhibition” value is reported as -6% and the Z score was determined as 1.24.
For the compound `Cc1nc(CNc2nc(-c3ccccn3)nc3c2CCNCC3)no1`, the “% Inhibition” value is -3% and the Z score was 0.47.
Take `CCNC(=O)[C@H]1CCN(Cc2cnc(CCOC)nc2)C1`: the “% Inhibition” value was 1% and the Z score is -0.2.
With `CN1C(C(=O)N2CCN(c3ccc(F)cc3)CC2)=CC(c2ccc3c(c2)OCO3)=NS1(=O)=O`, the “% Inhibition” value is -14% and the Z score is 2.74.
Taken in the same sequence, the figures for `O=C(c1ccc2[nH]cnc2c1)N1CC(S(=O)(=O)C2CCCCC2)C1` were -6% and 1.15.
For `CCOC(=O)c1c(S(=O)(=O)N2CCC[C@H](C(=O)N3CCCCC3)C2)c(C)n(C)c1C` the same measures were -8% and 1.36.
Turning to `FC(F)(F)c1cccc(-c2ccc(CNC[C@H]3CCCO3)o2)c1`, the “% Inhibition” value was found to be 3% and the Z score is on record as -0.39.
Take `O=C(COC[C@H]1CCCO1)NCc1ccc(-c2cccc(Cl)c2)o1`: the “% Inhibition” value is recorded as -10% and the Z score is 0.96.
Taken in the same sequence, the figures for `O=C(c1ccc2ncccc2c1)N1CCC2(CC1)NCCc1c2[nH]c2ccccc12` were -15% and 1.97.
For the compound `CN(C(=O)c1ccn2nnnc2c1)[C@@H](CCc1ccccc1)C(F)F`, the “% Inhibition” value was 1% and the Z score is -0.11.
Take `CN1CCN(C(=O)c2cc3nc(-c4ccc(Cl)c(Cl)c4)cc(C(F)(F)F)n3n2)CC1`: the “% Inhibition” value is given as -1% and the Z score was found to be 0.18.
As to `CC(C)(C)OC(=O)N1CCC[C@H]1C(=O)OCCNS(C)(=O)=O`, the “% Inhibition” value came out at 8% and the Z score is reported as -0.83.
As to `Cc1n[nH]c2c1CN(C(=O)c1ccc(=O)n(C)c1)CC2`, the “% Inhibition” value is -5% and the Z score was found to be 0.89.
Taken in the same sequence, the figures for `Cc1c(C(=O)O)nnn1-c1ccc(-c2ccccc2)cc1` were 3% and -0.48.
As to `CCOC1CC(NC(=O)c2cc(OC)c(OC)c(OC)c2)C1(C)C` (stereo unspecified), the “% Inhibition” value amounted to 1% and the Z score is on record as -0.2.
For `CN1CCC[C@@]2(CCN(C(=O)NCc3ccccc3-c3cnn(C)c3)C2)C1` the same measures were -8% and 0.85.
For `CN1c2cc(C(=O)Nc3cccc(Cl)c3)ccc2C(=O)N2CCCCC[C@H]21` the same measures were 9% and -1.57.
Taken in the same sequence, the figures for `Cn1nc(-c2nc(C3CCCC3)nn2[C@H]2CCS(=O)(=O)C2)ccc1=O` were -17% and 3.11.
Turning to `Cc1cc(C(C)NC(=O)C2CNC(=O)N2)c(C)s1` (stereo unspecified), the “% Inhibition” value is recorded as -8% and the Z score was 0.99.
For `CC(C)=CCO[C@H]1CCOC[C@H]1NC(=O)c1ccccc1N1CCCC1` the same measures were -3% and 0.4.
Taken in the same sequence, the figures for `CC(C)c1nnc(NC(=O)c2cccnc2Oc2ccc(F)cc2Br)s1` were -31% and 3.58.
For `O=C(c1cc(-c2ccco2)[nH]n1)N1CCc2ccccc2C1` the same measures were -20% and 3.35.
For the compound `Cc1nn(-c2ccc3nncn3n2)c(C)c1CCC(=O)NC1CCCCC1`, the “% Inhibition” value turned out to be 0% and the Z score is 0.03.
Taken in the same sequence, the figures for `O=C1NC(=O)C2(CCN(C(=O)c3cc(Cl)c[nH]3)CC2)N1` were -9% and 0.89.
Regarding `c1ccc(-c2nc3nc(-c4cccs4)cn3nc2-c2ccccc2)cc1`, the “% Inhibition” value is recorded as 6% and the Z score is -0.73.
Taken in the same sequence, the figures for `O=C(CCCc1nc(C2CC2)no1)Nc1ccc(-n2cnnn2)cc1` were -10% and 1.13.
`Cc1nn(CCNS(=O)(=O)N(C)C)c(C)c1-c1ccsc1`: the “% Inhibition” value was 24% and the Z score was -2.99.
Regarding `C[C@H](NC(=O)OC(C)(C)C)c1nc(-c2cnn(C)c2)cs1`, the “% Inhibition” value amounted to 4% and the Z score is recorded as -0.5.
Taken in the same sequence, the figures for `O=S(=O)(c1ccc(-c2cc(C(F)(F)F)on2)o1)N1CCN(c2cccc(Cl)c2)CC1` were -9% and 1.56.
For `CCO[C@@]1(C)C[C@H]1NC(=O)NCc1cccc(Cl)c1O` the same measures were -4% and 0.58.
`Cc1cc(O)c2cc(C(=O)Nc3ccc(C(N)=O)cc3)ccc2n1`: the “% Inhibition” value is on record as -5% and the Z score was found to be 0.7.
For `CCOC(=O)[C@H]1CCCN(C(=O)CN(C)C(=O)c2cc3n(n2)CCCN(Cc2ccc(C)cc2)C3=O)C1` the same measures were -7% and 0.83.
Take `CC(=O)Nc1nc(C(=O)N2C[C@@H](C)CC(C)(C)C2)cs1`: the “% Inhibition” value is reported as -4% and the Z score came to 0.7.
Take `CCN(CC)C(=O)c1cn2c3c(cccc3c1=O)C[C@@H]2C`: the “% Inhibition” value worked out at 15% and the Z score was -1.9.
`Cc1nc2c(s1)CCC[C@@H]2NC(=O)CCc1cccnc1`: the “% Inhibition” value is listed as -1% and the Z score was 0.08.
Consider `CC[C@H](C)NC(=O)CCc1c(-c2ccc(Cl)cc2)nc2ccc(-c3cccc(C(F)(F)F)c3)cn12`, for which the “% Inhibition” value is recorded as -11% and the Z score was 1.28.
On to `O=c1[nH]ccc2ccc(-n3ncc4cccnc43)cc12`, for which the “% Inhibition” value was -12% and the Z score worked out at 1.7.
In the case of `Cc1cnn(Cc2cccc(F)c2)c1NC(=O)c1cccc2c1OCC2`, the “% Inhibition” value amounted to 7% and the Z score is given as -0.94.
For `Cc1nonc1CN1CCC[C@H](C(=O)Nc2ccccn2)C1` the same measures were -3% and 0.6.
For `Cc1cc(CS(=O)(=O)Cc2noc(C(C)(C)C)n2)on1` the same measures were -6% and 0.51.
`CC(C)c1ccc(C#N)c(N(C)CCn2ccnc2)n1`: the “% Inhibition” value is reported as -13% and the Z score amounted to 1.33.
Taken in the same sequence, the figures for `CC(C)(C)c1ncc(CN2CC(O)(c3ccccc3)C2)s1` were -11% and 1.79.
As for `Cc1nc(CN2CC[C@H](NC(=O)C3CCOCC3)[C@@H](O)C2)cs1`, the “% Inhibition” value is reported as -12% and the Z score was found to be 2.19.
In the case of `CC1CC(C)CN(Cc2ccc(CNC(=O)C3CCCN(C(=O)C(C)C)C3)cc2)C1` (stereo unspecified), the “% Inhibition” value worked out at 2% and the Z score is reported as -0.32.
Taken in the same sequence, the figures for `Cc1nsc(C(=O)N2CCC(c3nc4c(s3)CCC4)CC2)n1` were -14% and 1.69.
As for `Cc1nsc2ncn(Cc3cc(-c4ccccc4)on3)c(=O)c12`, the “% Inhibition” value is recorded as -16% and the Z score turned out to be 2.03.
For `Cc1ccc(-n2nc3c(=O)n([C@@H](C)C(=O)NCc4ccc(Cl)cc4)nc(C)c3c2C)cc1` the same measures were 10% and -1.13.
For the compound `Cc1ccc(-n2cc3c(N4CCC(C(=O)N5CCN(c6ccccc6F)CC5)CC4)ncnc3n2)cc1`, the “% Inhibition” value is -25% and the Z score amounted to 2.25.
With `CCOc1nnc(CNC2(C(N)=O)CCCCC2)s1`, the “% Inhibition” value was -5% and the Z score worked out at 0.67.
Regarding `CCN1CCN(C2CN(C(=O)c3cc(C)cc(C)c3)C2)CC1`, the “% Inhibition” value worked out at 7% and the Z score is listed as -0.84.
Taken in the same sequence, the figures for `CCOc1ccc(C(=O)NCCn2nc(C3CC3)ccc2=O)nn1` were 3% and -0.37.
For `C[C@@H](CC#N)NC(=O)c1sccc1OC(F)F` the same measures were -9% and 0.95.
For `C[C@@H](C1CCN(c2ccc3cc(Cl)ccc3n2)CC1)N1CCCC1` the same measures were -13% and 1.78.
For the compound `CCN(C)C(=O)Nc1cc(F)ccc1Br`, the “% Inhibition” value is -2% and the Z score stood at 0.21.
For `c1cn(C2CCN(CCc3ccc4c(c3)CCO4)CC2)cn1` the same measures were -3% and 0.37.
For `CCCc1cc(C(=O)N[C@H](c2ccccn2)C(F)(F)F)[nH]n1` the same measures were -20% and 2.04.
Taken in the same sequence, the figures for `CN1CCc2c([nH]c3ccccc23)C12CCN(C(=O)Cc1cccnc1)CC2` were 3% and -0.57.
As to `COc1ccc(CNC(=O)Cn2cnc3c(C(N)=O)nsc3c2=O)cc1`, the “% Inhibition” value was -4% and the Z score was found to be 0.48.
On to `C=C(C)Cn1c(C(C)c2cnn(C)c2)nnc1N1C[C@@H](C)O[C@@H](C)C1` (stereo partly specified), for which the “% Inhibition” value was -14% and the Z score came out at 1.44.
Taken in the same sequence, the figures for `CCCc1cc(C(=O)N2CCC[C@H](C(=O)c3cccc4ccccc34)C2)n(C)n1` were -7% and 0.97.
For `Cc1cc(C)nc(NC2=NC(=O)CN2c2cc(Cl)cc(Cl)c2)n1` the same measures were 7% and -0.96.
For `CCOc1ncccc1-c1cnn(CC)c1C` the same measures were -14% and 2.06.
With `CC(CNC(=O)NC1CCN(c2cnn(C)c2)C1)Cc1cccs1` (stereo unspecified), the “% Inhibition” value is -4% and the Z score came out at 0.44.
With `COc1ccccc1-c1ncc(CN2CCC[C@H]2c2ccc(C(N)=O)s2)cn1`, the “% Inhibition” value was -12% and the Z score was determined as 1.81.
As for `Cc1ccc(-n2ccnc2)c(C(=O)N2CCC3(CC2)NC(=O)CO3)c1`, the “% Inhibition” value came to 6% and the Z score was -1.03.
